The results in this text go back to PubChem BioAssay AID488969 (Vanderbilt High Throughput Screening Facility, 2010).

In all, about 110,000 compounds were measured (“z-score”: median about -0.1, highest 2% from about 2 on). Some of the results follow. Active and inactive are the calls of the source.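 How the source made its calls: active means z-score in the third read window above 3 or below -3; inactive means the rest.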

The test has as its target Metabotropic glutamate receptor 8 (Rattus norvegicus) (UniProt P70579). Briefly: mGluR8 Gi/Go-coupled signaling modulation – cell-based, rat, thallium flux, HTS, primary screen (AID 488969). The settings on record: HEK293 rat mGluR8, GIRK (G protein-gated inwardly rectifying potassium channel) thallium flux, FluoZin2; at 10 µM; stronger effect = higher value; submaximal glutamate (EC20) added with thallium.
Chain of UniProt P70579 (P70579 whole entry, looked up): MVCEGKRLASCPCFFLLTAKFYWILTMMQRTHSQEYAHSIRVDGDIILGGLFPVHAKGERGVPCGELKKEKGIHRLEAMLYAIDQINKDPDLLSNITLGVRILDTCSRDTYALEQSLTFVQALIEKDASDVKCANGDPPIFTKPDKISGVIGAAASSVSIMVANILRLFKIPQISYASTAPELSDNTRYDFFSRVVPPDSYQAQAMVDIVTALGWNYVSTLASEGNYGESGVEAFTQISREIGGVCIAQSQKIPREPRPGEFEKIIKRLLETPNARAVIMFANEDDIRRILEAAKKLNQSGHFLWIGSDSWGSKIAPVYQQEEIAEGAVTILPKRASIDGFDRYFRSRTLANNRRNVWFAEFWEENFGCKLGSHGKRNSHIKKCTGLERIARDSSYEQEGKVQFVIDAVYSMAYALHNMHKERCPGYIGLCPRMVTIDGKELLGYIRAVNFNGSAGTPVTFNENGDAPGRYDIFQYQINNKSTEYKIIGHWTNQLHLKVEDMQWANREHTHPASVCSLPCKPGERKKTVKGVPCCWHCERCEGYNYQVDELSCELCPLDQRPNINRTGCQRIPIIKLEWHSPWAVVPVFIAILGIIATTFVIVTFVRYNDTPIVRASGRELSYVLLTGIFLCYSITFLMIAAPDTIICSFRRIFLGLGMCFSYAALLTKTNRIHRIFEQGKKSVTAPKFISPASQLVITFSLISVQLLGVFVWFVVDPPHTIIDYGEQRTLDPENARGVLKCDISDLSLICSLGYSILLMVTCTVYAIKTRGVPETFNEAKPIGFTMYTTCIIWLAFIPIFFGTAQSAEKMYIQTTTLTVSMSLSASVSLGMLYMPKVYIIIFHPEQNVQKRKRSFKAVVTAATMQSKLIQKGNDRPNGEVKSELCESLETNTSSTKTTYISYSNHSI
The compound `Cc1cc(C)cc(NC(=O)CSc2nc3c(c(=O)[nH]2)CN(Cc2ccc(F)cc2)CC3)c1` showed a z-score of -0.257.
With `Cc1ccc(OCc2nnc(SCC(=O)NCc3ccco3)n2C)cc1` the figure was 0.00137.
In turn, `CC(=O)c1ccccc1NC(=O)Cn1c(=O)cnc2ccccc21` registered a z-score of -0.0607.
`COC(=O)C1=C(C)N(C)C(C)=C(C(=O)OC)C1c1ccccn1` yielded a z-score of 0.756.
With `CCCCC1N2CC3([N+](=O)[O-])CN1CC([N+](=O)[O-])(C2)C3(C)C` (centres undefined), the z-score was -0.164.
The result for `CC1=C(C(N)=O)C(c2ccccc2)n2nc(-c3cccs3)nc2N1` (centres undefined) reads 0.55.
Compound `Cc1ccc(NCc2ccccc2O)cc1` had a z-score of -0.328.
With `CCC(=O)Nc1ccc(NC(=O)c2ccco2)cc1` the figure was 0.535; with `CC(=O)O/N=C(/C)c1ncc(C(F)(F)F)cc1N1CCOCC1`, -0.337.
In turn, `O=Cc1ccc2noc(-c3ccc(F)cc3)c2c1` showed a z-score of -0.293.
With `O=C(Nc1ccccc1Br)C(=O)N1CCCC1` the figure was -0.0281; with `CC1=C(C(=O)OCC2CCCO2)C(c2cccc(C(F)(F)F)c2)C2=C(CC(c3ccco3)CC2=O)N1` (centres undefined), -0.199; with `O=C(O)c1ccc(F)c(S(=O)(=O)Nc2ccccc2)c1`, -0.264.
As for `COc1ccc(CNCCCO)cc1OC`, the z-score is -0.112.
With `O=C(Nc1cccc([N+](=O)[O-])c1)c1ccc(-c2ccccc2)cc1` the figure was 0.358; with `CCn1c(SCC(=O)OC)nnc1-c1ccncc1`, 0.188.
`CCOC(=O)Cc1csc(NC(=S)NC(=O)C(C)(C)C)n1` gave a z-score of 1.73.
The result for `O=c1c2ccccc2nc2n1CCCCN2` reads -0.128; that for `O=C(Oc1nsnc1N1CCOCC1)c1ccccc1`, -2.61.
With `Cc1ccc([N+](=O)[O-])cc1-c1ccc(/C=N/NC(=O)c2cc3c(ccc4ccccc43)o2)o1` the figure was -0.0871; with `COc1ccc(OC)c(S(=O)(=O)N2Cc3ccccc3CC2C(=O)O)c1` (centres undefined), 0.299.
Turning to `Nc1nc2c(s1)CC(c1ccccc1)CC2` (centres undefined), the z-score was -0.255.
The result for `CCN(CC)S(=O)(=O)c1ccc2c(c1)nc(CCC(=O)OCC(=O)Nc1cc(Cl)cc(Cl)c1)n2C` reads -0.0198; that for `Cc1ccccc1N1C(=O)c2ccccc2NC1c1ccncc1` (centres undefined), -0.158.
The compound `O=C(O)c1cc(S(=O)(=O)Nc2ccccc2C(=O)O)ccc1O` came in with a z-score of -0.576.
`Cn1nc(C(F)(F)F)c2cc(C(=O)Nc3ccc(F)cc3F)sc21` yielded a z-score of -0.353.
The result for `COc1ccc(C)cc1NC(=O)CSc1nnc(CC(=O)Nc2cccc(C(F)(F)F)c2)n1C` reads -0.324; that for `CC1=CC2=NC(=O)/C(=C\c3ccc(-c4cccc(Cl)c4)o3)C(=N)N2O1`, 0.0235.
The compound `COc1cccc(-c2cc(C(=O)N3C(C)CCCC3C)no2)c1` (centres undefined) came in with a z-score of -0.0336.
With `O=C(NC1CCCC1)C(c1ccccc1F)N(C(=O)Cc1cccs1)c1ccc2c(c1)OCCO2` (centres undefined) the figure was -0.283.
For `CC(C)(C)c1nc2ccccc2c(=O)n1N1C(=O)c2ccccc2C1=O`, the z-score is -0.0123.
The result for `CN(C)c1ccnc(N(Cc2ccccc2)Cc2ccccc2)c1C#N` reads 1.24.
The result for `Cc1c(-c2ccccc2)nc2ccccc2c1C(=O)Oc1ccc([N+](=O)[O-])cc1` reads -0.143.
On to `CC1=CCC2C(=O)N(c3nc4ccccc4n3C)C(=O)C2C1` (centres undefined), for which the z-score was -0.167.
Regarding `COc1ccc(C2c3c(oc4ccccc4c3=O)C(=O)N2CC2CCCO2)cc1` (centres undefined), the z-score came out at 0.6.
With `CC1CCCC(C)N1C(=O)CSCc1ccc(Cl)cc1` (centres undefined) the figure was -0.239; with `O=C(Nc1nncs1)C(Sc1ccccc1)c1ccccc1` (centres undefined), -0.284.
Compound `CC12C(=O)N(c3cccc(OC(=O)c4ccco4)c3)C(=O)C1C1c3ccccc3C2c2ccccc21` (centres undefined) yielded a z-score of 0.285.
The result for `CC(=O)NN1C(=O)c2ccc(Oc3ccc([N+](=O)[O-])cc3)cc2C1=O` reads -0.00435; that for `COc1ccccc1C1/C(=C(/O)c2ccc(C)cc2)C(=O)C(=O)N1CCN1CCOCC1` (centres undefined), -0.543.
The result for `COc1ccc(-c2cc(C(=O)OC3CCOC3=O)c3ccccc3n2)cc1` (centres undefined) reads 0.00205; that for `COc1cccc(N2CCN(Cc3nc(N)nc(Nc4ccccc4OC)n3)CC2)c1`, -0.203.
The result for `CCOc1cc(CNCCc2ccc(S(N)(=O)=O)cc2)ccc1OCC(=O)NC(C)(C)C` reads 0.0929; that for `O=[N+]([O-])c1cc(-c2cnc3ccccc3n2)ccc1Oc1ccc(Br)cc1`, 0.971; that for `CC(=O)c1cccc(NC(=S)NC(=O)c2cccc(Cl)c2)c1`, active: 8.71.
For the compound `CCc1nc(N2CCN(C(=O)c3ccccc3)CC2)c(C#N)c2c1COC(C)(C)C2`, the z-score was -1.59.
Turning to `CC1(C)CC(=O)c2c(-c3cccnc3)n[nH]c2C1`, the z-score stood at 0.75.
The result for `C=CCn1c(-c2csc(-c3ccccc3)n2)n[nH]c1=S` reads 0.103; that for `Cn1c(SCC(=O)NCCNC(=O)CSc2nnc(C(F)(F)F)n2C)nnc1C(F)(F)F`, 0.484; that for `Cc1cc(NC(=O)c2ccc(S(=O)(=O)Nc3ccccc3)cc2)no1`, -0.203.
Consider `COc1ccc(NC(=O)N(Cc2ccc(C)cc2)Cc2cccnc2)c(OC)c1`, for which the z-score was -0.279.
With `Cc1cc(C)cc(N(C(=O)c2ccccn2)C(C(=O)NC2CCCCC2)c2cccs2)c1` (centres undefined) the figure was -0.409; with `Cc1nnc(Nc2ccc(Cl)cc2)n(N)c1=O`, -0.183; with `Cc1cc(C)c(C)c(S(=O)(=O)NCC(=O)Nc2sc3c(c2C(N)=O)CCCC3)c1C`, -0.279.
With `COc1ccccc1NC(=O)N1CCCC1C(=O)Nc1ccc2c(c1)OCO2` (centres undefined) the figure was -0.145; with `COCCn1nnnc1C(C(C)C)N1CCC(Cc2ccccc2)CC1` (centres undefined), 0.00487; with `Cc1cc(=O)[nH]c(N2CCN(C(c3ccccc3)c3ccccc3)CC2)n1`, 0.968.
`COC(=O)c1c(NC(=O)CN(c2ccc(C)c(C)c2)S(C)(=O)=O)sc2c1CCCC2` returned a z-score of -0.153.
With `O=C1CC(N2CCN(c3cccc(C(F)(F)F)c3)CC2)C(=O)N1c1ccccc1F` (centres undefined) the figure was 0.0327; with `CC(C)CC(=O)NC(=S)NNC(=O)c1ccc(NC(=O)C2CCCCC2)cc1`, -0.269; with `CC1CCN(S(=O)(=O)c2ccc(NC(=O)Cn3nnc(-c4ccccc4)n3)cc2)CC1`, 0.0222.
The result for `CCOCCOC(=O)c1ccc(-n2cncn2)nc1` reads -0.445.
With `Fc1ccc(CNCc2cccc(Br)c2)cc1` the figure was 0.0949.
`COc1cccc(-n2c(C)nn(C)c2=O)c1` yielded a z-score of 0.146.
The compound `COc1ccc(/C(O)=C(\C#N)c2nc3ccccc3n2C)cc1OC` displayed a z-score of -0.414.
Turning to `Cc1cc(C)c(NC(=O)CN2C(=O)NC3(CCCCC3)C2=O)c(C)c1`, the z-score was -0.99.
With `COC(=O)c1sc(NC(=S)NC(=O)c2ccccc2)nc1C` the figure was 2.47; with `CC(C(=O)c1ccc(-c2ccccc2)cc1)[n+]1ccccc1` (centres undefined), 0.48; with `CC1=NN(c2ccccc2)C(=O)/C1=C\c1ccc(Br)s1`, 0.15.
